# Reference: the BET-seq Pho4 binding data (Le et al. 2018)
# The list shows a part of the results. These are noisy estimates, calculated here from bound and input reads.
# Biological target: T1, Pho4 (S. cerevisiae) (UniProt P07270)
# T1 sequence: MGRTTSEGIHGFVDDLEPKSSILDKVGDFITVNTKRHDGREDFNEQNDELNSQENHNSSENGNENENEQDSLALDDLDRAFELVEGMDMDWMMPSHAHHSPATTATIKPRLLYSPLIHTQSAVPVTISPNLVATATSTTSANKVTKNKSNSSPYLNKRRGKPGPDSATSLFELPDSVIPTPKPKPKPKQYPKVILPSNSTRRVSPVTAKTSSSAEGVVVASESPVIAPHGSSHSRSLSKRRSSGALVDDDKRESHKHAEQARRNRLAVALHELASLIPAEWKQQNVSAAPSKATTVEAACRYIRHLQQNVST
# Assay: relative binding free energy (BET-seq); higher = weaker binding
# Settings: reference: library average
row,Sequence,relative binding free energy
1,GTTTCCACGTGAAGGT,0.5 kcal/mol
2,TGGTCCACGTGGATGG,-0.02 kcal/mol
3,GGAGACACGTGCTGTG,0.07 kcal/mol
4,TAAAGCACGTGGTGCG,-0.19 kcal/mol
5,GTTAACACGTGAGCGT,0.11 kcal/mol
6,GGTTACACGTGGTTTA,0.09 kcal/mol
7,TTTGGCACGTGTGCTT,-0.02 kcal/mol
8,GACCGCACGTGAGGGG,0.17 kcal/mol
9,TTATTCACGTGTCTGG,0.35 kcal/mol
10,TTGATCACGTGTACAT,0.14 kcal/mol
11,GTTTTCACGTGTGGGA,0.38 kcal/mol
12,GGTGGCACGTGTAAGC,0.09 kcal/mol
13,GTTGACACGTGGTGAG,0 kcal/mol
14,ATCGTCACGTGAAGTT,0.35 kcal/mol
15,TATTACACGTGAGGCT,0.24 kcal/mol
16,GTATTCACGTGGGTCT,0.25 kcal/mol
17,TATGCCACGTGCGGGG,-0.3 kcal/mol
18,CGTGTCACGTGTTGGG,0.06 kcal/mol
19,AGATCCACGTGGGGTA,0.02 kcal/mol
20,TCGGGCACGTGTTCAT,0.13 kcal/mol
21,TAAATCACGTGGGTTA,0.12 kcal/mol

row,Sequence,relative binding free energy
1,TAGGTCACGTGAGTGG,0.2 kcal/mol
2,TTTCTCACGTGTGTTG,0.22 kcal/mol
3,TTAGTCACGTGGCGAT,0.09 kcal/mol
4,TAGCTCACGTGGGGCA,0.06 kcal/mol
5,TTGGTCACGTGCTTGG,0.22 kcal/mol
6,TGCGGCACGTGTTAAT,-0.08 kcal/mol
7,ATGGACACGTGGCGGC,-0.06 kcal/mol
8,GTTTGCACGTGTGAAG,0.05 kcal/mol
9,TCAGGCACGTGGGGCT,-0.28 kcal/mol
10,CGCGACACGTGGGGGG,-0.18 kcal/mol
11,GGTCTCACGTGTTTCG,0.21 kcal/mol
12,ATTGACACGTGATAGT,0.04 kcal/mol
13,ACGCGCACGTGGGGGA,-0.25 kcal/mol
14,TAGTGCACGTGTGGCC,-0.02 kcal/mol
15,GTGTTCACGTGAGCGT,0.31 kcal/mol
16,GCTCGCACGTGGTAGG,-0.02 kcal/mol
17,CATTGCACGTGGAGAT,0.1 kcal/mol
18,GAGGTCACGTGGTTCT,0.16 kcal/mol
19,TTTGTCACGTGATAGG,0.25 kcal/mol
20,TAGTACACGTGGTGCT,-0.09 kcal/mol
21,TGGGACACGTGTCAGT,0.09 kcal/mol

row,Sequence,relative binding free energy
1,GGATACACGTGGAGAG,0.24 kcal/mol
2,TAAGACACGTGTCTGT,0.02 kcal/mol
3,CGGGGCACGTGGGAGT,-0.13 kcal/mol
4,GTTTTCACGTGGATAA,0.23 kcal/mol
5,ATTTACACGTGTTGAT,0.19 kcal/mol
6,AAATGCACGTGGGAAG,0.12 kcal/mol
7,GGGTGCACGTGTATCA,-0.03 kcal/mol
8,AATTTCACGTGTGTCG,0.39 kcal/mol
9,TTTGGCACGTGCAATG,-0.14 kcal/mol
10,ATTCACACGTGGGAAG,0.09 kcal/mol
11,TATCTCACGTGATTGT,0.33 kcal/mol
12,TTATTCACGTGGGCTG,0.04 kcal/mol
13,TTTCTCACGTGATTGT,0.3 kcal/mol
14,TCGTGCACGTGGTCAG,-0.12 kcal/mol
15,ATGATCACGTGGCATG,0.04 kcal/mol
16,ATGTCCACGTGATGGG,0.03 kcal/mol
17,CGGGCCACGTGTGGTA,-0.07 kcal/mol
18,GGATACACGTGGGGTA,-0.08 kcal/mol
19,TGGTACACGTGTTGGA,0.04 kcal/mol
20,TGATCCACGTGTTCGG,0.15 kcal/mol
21,TAGTCCACGTGATAGG,0.17 kcal/mol
